Read counts are not given, so values of variants with three or more changes are uncertain.
B1: OR4K15 (parent)
chain: GUUAACGGUCAUAGGCCAUGGAAACUAGGAGCACCAUUUCGCUGCCAGUGAAGAAAUGAACAAAGAAAAUCUGGGCCAGGCAGGCAUCAAAAGAAAUAGUCUUGCGCUCAACCAGAAAGUCUGUAAUCAUUUUAAGGGUA

Variants of: B1
Assay: self-cleavage, relative activity (ratio to wild type); higher = more cleavage; in vitro, sequencing; the parent is a self-cleaving ribozyme

| Variant | self-cleavage |
| --- | --- |
| GUUAUCGGUCAUAGGCCAUGGAAUCUAGGAGCACCAUUUCGCUGCCAGUGAAGAAAUGAACAAAGAAAAUCUGGGCCAGGCAGGCAUCAAAAGAAAUAGUCUUGCGCUCAACCAGAAAGUCUGUAACCAUUUUAAGGGUA | 1.64 |
| GUUAUCGGUCAUAGGCCAUGGAAUCUAGGAGCACCAUUUCGCUGCCAGUGAAGAAAUGAACAAAGAAAAUCUGGGCCGGGCAGGCAUCAAAAGAAAUAGUCUUGCGCUCAACCAGAAAGUCUGUAAUCAUUUUAAGGGUA | 0.44 |
| GUUAUCGGUCAUAGGCCAUGGAAACUUGGAGCACCAUUUCGCUGCCAGUGAAGAAACGAACAAAGAAAAUCUGGGCAAGGCAGGCAUCAAAAGAAAUAGUCUUGCGCUCAACCAGAAAGUCUGUAAUCAUUUUAAGGGUA | 1.14 |
| GUUAGCGGUCAUAGGCCAUGGAAACUAGGAGCACCAUUUCGCUGCCAGUGAAGAAAUGAACAAAGAAAAUCUGGGCCAGGCAGGCAUCAAAAGAAAUAGUCUUGCGCACAACCAGGAAGUCUGUAAUCAUUUUAAGGGUA | 0 |
| GUUAGCGGUCAUAGGCCAUGGAAACUAGGAGCACCAUUUCGCUGCCAGUGAAGAAAUGAACAAAGAAAAUCCGGGCCAGGCAGGCAUCAAAAGAAAUAGUCCUGCGCUCAACCAGAAAGUCUGUAAUCAUUUUAAGGGUA | 0.77 |
| GUUAGCGGUCAUAGGCCAUGGAAACUAGGAGCACCAUUUCGCUGCCAGUGAAGAAAUGAACAAAGAAAAUCUGGGCCAGGCAGGCACCAAAAGAAAUGGUCUUGCGCUCAACCGGAAAGUCUGUAAUCAUUUUAAGGGUA | 0.17 |
| GUUAUCGGUCAUAGGCCAUGGAAACUAGGAGCACCAUUUCGCUGCCAGUGAAGAAAUGAACAUAGAGAAUCUGGGCCAGGCAGGCAUCAAAAGAAAUAGUCUUGCGCUCGACCAGAAAGUCUGUAAUCAUUUUAAGGGUA | 0.38 |
| GUUAUCGGUCAUAGGCCAUGGAAACUAGGAGCACCAUUUCGCUGCCAGUGAAGAAAUGAGCAUAGAAAAUCUGGGCCAGGCAGGCAUCAAAAGAAAUAGUCUUGCGCUCAACCAGAAAGUCUGUAAUCAUUUUAAGGGUA | 1.31 |
| GUUAUCGGUCAUAGGCCAUGGGAACUAGGAGCACCAUUUCGCUGCCAGUGAAGAAACGAACAAAGAAAAUCUGGGCCAGGCAGGCAUCAAAAGAAAUAGUCUUGCGCUCAACCAGAAAGUCUGUAAUCAUUUUAAGGGUA | 0.56 |
| GUUAUCGGUCAUAGGCCAUGGAAACUAGGGGCACCAUUUCGCUGCCAGUGAAGAAAUGAACAAAGAAAAUCUGGGCCAGGCAAGCAUCAAAAGAAAUAGUCUUGCGCUCAACCAGAAAGUCUGUGAUCAUUCUAAGGGUA | 0.55 |
| GUUAUCGGUCAUAGGCCGUGGAAACUAGGAGCACCAUUUCGCAGCCAGUGAAGAAAUGAACAAAGAAAAUCUGGGCCAGGCAGGCAUCAAGAGAAAUAGUCUUGCGCUCAACCAGAAAGUCUGUAAUCAUUUUAAGGGUA | 1.22 |
| GUUAUCGGUCAUAGGCCAUGGAUACUAGGAGCACCAUUUCGCUGCCAGUGAAGAAAUGAACAAAGAAAAUCUGGGCCAGGCAGGCAUCAAAAGAAGUAGUCUUGCGCUCAACCAGAAAGUCUGUAAUCAUUUUAAGGGUA | 1.08 |
| GUUAUCGGUCAUAGGCCAUGGAAGCUAGGAGCACCAUUACGCUGCCAGUGAGGAAAUGAACAAAGAAAAUCUGGGCCAGGCAGGCAUCAAAAGAAAUAGUCUUGCGCUCAACCAGAAAGUCUGUAAUCAUUUUAAGGGUA | 0.89 |
| GUUAUCGGUCAUAGGCCAUGGGAACUAGGGGCACCAUCUCGCUGCCAGUGAAGAAAUGAACAAAGAAAAUCUGGGCCGGGCAGGCAUCAAAAGAAAUAGUCUUGCGCUCAACCAGAAAGUCUGUAAUCAUUUUAAGGGUA | 0.37 |
| GUUAUCGGUCAUUGGCCAUGGAAACUAGGAGCACCAUUUCGCUGCCGGUGAAGAAAUGAACAAAGAAAAUCUGGGCCAGGCAGGCAUCAAAAGAAAUAGUCUUGCGCUCAACCAGAAGGUCUGUAAUCAUUUUAAGAGUA | 1.78 |
| GUUAUCGGUCAUAGGCCAUGGAAACUAGGAGCACCAUUUCGCUGCCAGUGAAGAAGUGAACAAAGAAAAUCUGGGCCAGGCAGGCAUCAAAAGAAAUAGUCUUGCGCUCAACCAGAGAGUCCGUAAUCAUUUUAAGGGUA | 1.59 |
| GUUAUCGGUCAUAGGCCAUGGAAACUAGGAGCACCAUUUCGCUGCCAGUGAAGAAAUGAACCAAGAAAAUCUGGGCCAGGCAGGCAUCGAAAGAAAUAGUCUUGCGCUCAACCAGAAAGUCUGUAAUCAUUUUAAGGGUG | 1.44 |
| GUUAGCGGUCAUAGGCCAUGGAAACUAGGAGCACCAUUUCGCUGCCAGUGAAGAAAUGAACAAAGAAAAUCUGGGCCAGGCAGGCACCAAAAGAAAUAGUCUUACGCUCAAUCAGAAAGUCUGUAAUCAUUUUAAGGGUA | 0.03 |
| GUUAUCGGUCAUGGGCCAUGGAAACUAGGAGCACCAUUUCGCUGCCAGUGAAGAAAUGAACAAAGAAAAUCUGGGCCAGGCAGGCAUCAAAAGAAAUAGUCUUGCGCUCAACCAGAAAGUCUGUAAUCAUUUUAUGGGUA | 0 |
| GUUAUCGGUCAUAGGCCAUGGAAACUAGGAGCACCAUUUCGCUGCCAGUGGAGAAAUGAACGAAGAAUAUCUUGGCCAGGCAGGCAUCAAAAGAAAUAGUCUUGCGCUCAACCAGAAAGUCUGUAAUCAUUUUAAGGGUA | 0.29 |
| GUUAGCGGUCAUAGGCCAUGGAAACUAGGAGCACCAUUUCGCUGCCAGUGAAGAAAUGAACAAAGAAAAUCUGGGCCAGGCAGGCAUCAAAAGAAAUAGUCCUGCGCUCAACCAGAAAGUCUGUAACCAUUUUAAGGGUA | 0.47 |

| Variant | self-cleavage |
| --- | --- |
| GUUAUCGGUCAUAGGCCAUGGAAACUAGGAGCACCAUUUCGCUGCCAGUGAAGAAGUGGACAAAGAGAAUCUGGGCCAGGCAGGCAUCAAAAGAAAUAGCCUUGCGCUCAACCAGAAAGUCUGUAAUCAUUUUAAGGGUA | 1.29 |
| GUUAUCGGUCAUAGGCCAUGGAAACUAGGAGCACCAUUUCGCUGCCAGUGAAGAAAUGAACAAAGGAAAUCUGGGCCAGGCAGGCAUCAAAAGAAAUAGUCCUGCGCUCAACCAGAAAGUCUGUAAUCAUUUUAAGGGUA | 1.56 |
| GUUAUCGGUCAUAGGCCAUGGAAACUGGGAGCACCAUUUCGCUGCCAGUGAAGAAAUGAACAAAGGAAAUCUGUGCCAGGCAGGCAUCAAAAGAAAUAGUCUUGCGCUCAACCAGAAAGUCUGUAAUCAUUUUAAGGGUA | 0.29 |
| GUUAUCGGUCAUAGGCCGUGGAAUCUAGGAGCACCAUUUCGCUGCCAGUGAGGACAUGAACAAAGAAAAUCAGGGCCAGGCAGGCAUCAAAAGAAAUAGUCUUGCGCUCAACCAGAAGGUCUGUAAUCAUUUUAAGGGUA | 0.18 |
| GUUAUCGGUCAUAGGCCAUGGAAACUAGGAGCACCUUUUCGCUGCCAGUGAAGAAAUGAACAAGGAAAAUCUGGGCCAGGCAGGCACCAAAAGAAAUAGUCUUGCGCUCAACCAGAAAGUCUGUAAUCAUUUUAAGGGUA | 1.34 |
| GUUAGCGGUCAUAGGCCAUGGAAACUAGGAGCACCAUUUCGCUGCCAGUGAAGAAAUGAACAAAGAAAAUCUGGGCCAGGCAGGCAUCAAAAGAAAUAGCCUUGCGCUCAACCAGAAAGUCUGUAAUCAUUUUAGGGGUA | 2.32 |
| GUUAUCGGUCAUAGGCCAUGGAAACUAGGAGCGCCAUUUCGCUGCCAGUGAAGAAAUGAACAAAGAAAAUCUGGGCCCGGCAGGCAUCAAAAGAAAUAGUCUUGCGCUCAACCAGAAAGUCUGUAAUCAUUUUAAGGGUA | 0.21 |
| GUUAUCGGUCAUAGGCCAUGGAAACUAGGAGCACCAUUUCGCUGCCAGUGGAGAAAUGAACAAAGAAAAUCUGGGCCAGGCAGGCAUCAAAAGAAAUAGUCUUGCGCUCAACCAGAAAGUCUGUGAUCAUUUUAAGGGUA | 0.47 |
| GUUAGCGGUCAUAGGCCAUGGAAACUAGGAGCACCAUUUCGCUGCCAGUGAAGAAAUGAACAAAGAAAAUCUGGGCCAGGCAGGCAUCAAAAGAAAUAGUCUCGCGCUCAACCAGAAGGUCUGUAUUCAUUUUAAGGGUA | 1.73 |
| GUUAGCGGUCAUAGGCCAUGGAAACUAGGAGCACCAUUUCGCUGCCAGUGAAGAAAUGAACAAAGAAAAUCUGGGCCAGGCAGGCAUCAAAAGAAAUAGCCUUGCGCUCAACCAGAAAGUCUGCGAUCAUUUUAAGGGUA | 1.42 |
| GUUAUCGGUCAUAGGCCAUGGGAACUAGGAGCACCAUUUCGCUGCCAGUGAAGAAAUGAACAAAGAAAAUCUGGGCCAGGCAGGCAUCGAAAGAAAUAGUCUUGCGCUCAACCAGAAAGUCUGUAAUCAUUUUAAGGGUA | 0.9 |
| GUUAUCGGUCAUAGGCCAUGGAAGCUAGGAGCACCAUUUCGCUGCCAGUGAAGAAAUGAACAAAGAAAAUCUGGGCCAGGCAGGCAUCAAAAGAAAUAGUCUUGCGCUCAACCAGAAAGUCUGUAAUCGUUUUAAGGGUA | 0.69 |
| GUUAUCGGUCAUAGGCCUUGGAAACUAGGAGCACCAUUUCGCUGCCAGUGAAGAAAUGAACUAGGAAAAUCUGGGCCAGGCAGGCAUCAAAAGAAAUAGUCUUGCGCUCAACCAGAAAGUCUGUAAUCAUUUUUAGGGUA | 0.64 |
| GUUAUCGGUCAUAGGCCAUGGAAACUAGGAGCACCAUUUCGCUGCCAGUGAAGAAAUGAACUGAGAAAAUCUGGGCCAGGCAGGCAUCAAAAGAAAUAGUCUUGCGCUCAACCAGAAAGUCUGUAGUCAUUUUAAGGGUA | 1.24 |
| GUUAGCGGUCAUAGGCCAUGGAAACUAGGAGCACCAUUUCGCUGCCAGUGAAGAAAUGAACAAAGAAAAUCUGGGCCAGGCAGGCACCUAAAGAAAUAGUCUUGCGCUCAACCAGAAAGUCUGUAACCAUUUUAAGGGUA | 1.44 |
| GUUAUCGGUCAUAGGCCAUGGAAACUAGGAGCACCAUUUCGCUGCCAGUGAAGAAAUGAACAGAGAAAGUCUGGGCCAGGCAGGCUUCAAAGGAAAUAGUCUUGCGCUCAACCAGAAAGUCUGUAAUCAUUUUAAGGGUA | 1.46 |
| GUUAUCGGUCAUAGGCCAUGGAAACUAGGAGCACCAUUUCGCUGCCAGUGUAGAAAUGAACAAAGAAAAUCUGGGCCAGGCAGGCAUCAAAAGAAAUAGUCUUGCGCUCAACCAGAAAGUCUGUAGUCAUUUAAAGGGUA | 0.72 |
| GUUAUCGGUCAUAGGCCAUGGAAACUAGGAGCACCAUUUCGCUGCCAGUGAAGAAAUGAACAGAGAAAAUCUGGGCCAGGCAGGCAUCAAAAGAAAUAGUCUUGCGCUCAACCAGAGAGUCUGUAAUCAUUUUAAGGGUA | 1.57 |
| GUUAGCGGUCAUAGGCCAUGGAAACUAGGAGCACCAUUUCGCUGCCAGUGAAGAAAUGAACAAAGAAAAUCUGGGCCAGGCAGGCAUCAAAAGAAAUAGUCUUGCGCUCAACCAGAAAGUCUGUAAUCAUUGUAAGGAUA | 0.65 |
| GUUAUCGGUCAUAGGCCAUGGAAGCUAGGAGCACCAUUUCGCUGCCAGUGAAGAAAUGAGCAUAGAAAAUCUGGGCCAGGCAGGCAUCAAAAGAAAUAGUCUUGCGCUCAACCAGAAAGUCUGUAAUCAUUUUAAGGGUA | 0.69 |
